Source: the supplement of paper PMC4967469
A lower IC50 marks a more sensitive line; where the fit passes the top or lowest dose, that dose stands as a limit. For AUC the same curve is integrated over the 256-fold range of doses and scaled to a fraction; the more sensitive the line, the further below 1. For some of these results: Any top dose called inferred was calculated from the reported fits.

What was measured:
Assay in all cases: Viability of human cancer cell lines after 72 h of drug (GDSC screen)
Dabrafenib = compound: CC(C)(C)c1nc(-c2cccc(NS(=O)(=O)c3c(F)cccc3F)c2F)c(-c2ccnc(N)n2)s1 [Dabrafenib]; conditions: top dose 10 µM
Protocol: (§1)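 Human cancer cell lines in 384-well plates, medium with 10% serum, drug for 72 h over a 256-fold dose range (nine 2-fold or five 4-fold steps up to the top dose). Adherent lines were fixed and stained with the nucleic acid dye Syto60, suspension lines read with resazurin; signal relative to control wells, capped at 0 and 100%. One two-parameter sigmoid per drug and line, fitted in a mixed model over all curves with the slope shared within a line.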

Vorinostat = compound: O=C(CCCCCCC(=O)Nc1ccccc1)NO [Vorinostat]; conditions: top dose 10 µM
Protocol: as §1

Axitinib = compound: CNC(=O)c1ccccc1Sc1ccc2c(/C=C/c3ccccn3)n[nH]c2c1 [Axitinib]; conditions: top dose 2 µM
Protocol: as §1

Methotrexate = compound: CN(Cc1cnc2nc(N)nc(N)c2n1)c1ccc(C(=O)N[C@@H](CCC(=O)O)C(=O)O)cc1 [Methotrexate]; conditions: top dose 0.2 µM
Protocol: as §1

SN-38 = compound: CCc1c2c(nc3ccc(O)cc13)-c1cc3c(c(=O)n1C2)COC(=O)[C@]3(O)CC [SN-38]; conditions: top dose 0.05 µM; top dose inferred
Protocol: as §1

Row | Cell Line | AUC (Dabrafenib) | IC50 (Dabrafenib) [nM] | AUC (Vorinostat) | IC50 (Vorinostat) [nM] | AUC (Axitinib) | IC50 (Axitinib) [nM] | AUC (Methotrexate) | IC50 (Methotrexate) [nM] | AUC (SN-38) | IC50 (SN-38) [nM]
1 | VMRC-LCD (lung adenocarcinoma, adherent) | 0.979 | > 10000 | 0.547 | 822 | 0.876 | 1440 | 0.991 | > 200 | 0.891 | 41.5
2 | G-292 Clone A141B1 (osteosarcoma, adherent) | 0.657 | 2230 | 0.823 | > 10000 | 0.899 | > 2000 | 0.939 | > 200 | 0.817 | > 50
3 | 42-MG-BA (glioma, adherent) | 0.973 | > 10000 | 0.826 | 6600 | 0.927 | > 2000 | 0.932 | > 200 | 0.529 | 3.76
4 | LS-513 (large intestine, adherent) | 0.975 | > 10000 | 0.758 | 3600 | 0.936 | > 2000 | 0.94 | > 200 | 0.708 | 12.4
5 | KP-1N (pancreas, adherent) | 0.956 | > 10000 | 0.897 | > 10000 | 0.969 | > 2000 | 0.858 | 177 | 0.889 | > 50
6 | LC-1-sq (lung squamous cell carcinoma, adherent) | 0.983 | > 10000 | 0.493 | 598 | 0.921 | > 2000 | 0.951 | > 200 | 0.858 | > 50
7 | NCI-H1755 (lung adenocarcinoma, adherent) | 0.894 | > 10000 | 0.857 | > 10000 | 0.947 | > 2000 | 0.902 | > 200 | 0.92 | > 50
8 | SK-MM-2 (myeloma, suspension) | 0.981 | > 10000 | 0.68 | 2040 | 0.987 | > 2000 | 0.974 | > 200 | 0.897 | > 50
9 | ES5 (Ewing sarcoma, adherent) | 0.846 | 8940 | 0.595 | 1180 | 0.819 | 1360 | 0.868 | > 200 | 0.633 | 7.72
10 | SNU-407 (large intestine, adherent) | 0.888 | > 10000 | 0.703 | 2600 | 0.953 | > 2000 | 0.874 | > 200 | 0.765 | 21.3
11 | SF126 (glioma, adherent) | 0.98 | > 10000 | 0.823 | 6310 | 0.856 | 1760 | 0.986 | > 200 | 0.565 | 4.75
12 | NCI-H1563 (lung adenocarcinoma, adherent) | 0.954 | > 10000 | 0.756 | 4020 | 0.811 | 1320 | 0.96 | > 200 | 0.925 | > 50
13 | EW-18 (Ewing sarcoma, suspension) | 0.973 | > 10000 | 0.506 | 652 | 0.928 | > 2000 | 0.908 | > 200 | 0.932 | > 50
14 | 451Lu (melanoma, adherent) | 0.089 | < 39.1 | 0.505 | 643 | 0.973 | > 2000 | 0.986 | > 200 | 0.897 | > 50
15 | NCI-H841 (small cell lung carcinoma, adherent) | 0.953 | > 10000 | 0.682 | 2030 | 0.876 | > 2000 | 0.98 | > 200 | 0.82 | 28.7
16 | JHOS-3 (ovary, adherent) | 0.982 | > 10000 | 0.959 | > 10000 | 0.981 | > 2000 | 0.981 | > 200 | 0.821 | 40
17 | COLO-800 (melanoma, adherent) | 0.967 | > 10000 | 0.654 | 1650 | 0.902 | > 2000 | 0.793 | 88.2 | 0.199 | 0.415
18 | D-283MED (medulloblastoma, adherent) | 0.99 | > 10000 | 0.507 | 651 | 0.953 | > 2000 | 0.982 | > 200 | 0.768 | 17.2
19 | SHP-77 (small cell lung carcinoma, semi-adherent) | 0.987 | > 10000 | 0.858 | 6870 | 0.992 | > 2000 | 0.956 | > 200 | 0.911 | > 50

Row | Cell Line | AUC (Dabrafenib) | IC50 (Dabrafenib) [nM] | AUC (Vorinostat) | IC50 (Vorinostat) [nM] | AUC (Axitinib) | IC50 (Axitinib) [nM] | AUC (Methotrexate) | IC50 (Methotrexate) [nM] | AUC (SN-38) | IC50 (SN-38) [nM]
20 | KYSE-50 (oesophagus, adherent) | 0.973 | > 10000 | 0.767 | 3410 | 0.99 | > 2000 | 0.953 | > 200 | 0.832 | 28.2
21 | MRK-nu-1 (breast, suspension) | 0.989 | > 10000 | 0.877 | 8640 | 0.974 | > 2000 | 0.97 | > 200 | 0.811 | 24
22 | Ca9-22 (head and neck, adherent) | 0.957 | > 10000 | 0.6 | 1150 | 0.948 | > 2000 | 0.959 | > 200 | 0.468 | 2.57
23 | MOLT-16 (T-cell lymphoblastic leukaemia, suspension) | 0.5 | 624 | 0.459 | 496 | 0.899 | 1630 | 0.439 | 8.84 | 0.234 | 0.653
24 | OVMIU (ovary, adherent) | 0.977 | > 10000 | 0.715 | 2990 | 0.973 | > 2000 | 0.859 | > 200 | 0.78 | 25.9
25 | EMC-BAC-2 (lung adenocarcinoma, adherent) | 0.439 | 412 | 0.684 | 2270 | 0.916 | > 2000 | 0.809 | 129 | 0.668 | 10.1
26 | OVCA433 (ovary, adherent) | 0.971 | > 10000 | 0.771 | 4250 | 0.904 | > 2000 | 0.983 | > 200 | 0.513 | 3.41
27 | RCC-ER (kidney, adherent) | 0.847 | 8750 | 0.789 | 5020 | 0.95 | > 2000 | 0.986 | > 200 | 0.734 | 16
28 | TOV-112D (ovary, adherent) | 0.861 | 8600 | 0.57 | 969 | 0.937 | > 2000 | 0.912 | > 200 | 0.618 | 6.61
29 | BT-483 (breast, adherent) | 0.971 | > 10000 | 0.831 | > 10000 | 0.974 | > 2000 | 0.977 | > 200 | 0.934 | > 50
30 | HEC-1 (endometrium, adherent) | 0.984 | > 10000 | 0.686 | 2030 | 0.945 | > 2000 | 0.976 | > 200 | 0.794 | 22
31 | ZR-75-30 (breast, adherent) | 0.965 | > 10000 | 0.875 | > 10000 | 0.977 | > 2000 | 0.981 | > 200 | 0.981 | > 50
32 | L-428 (Hodgkin lymphoma, suspension) | 0.989 | > 10000 | 0.651 | 1550 | 0.983 | > 2000 | 0.722 | 48.6 | 0.944 | > 50
33 | NCI-H2141 (small cell lung carcinoma, suspension) | 0.99 | > 10000 | 0.819 | 5500 | 0.986 | > 2000 | 0.972 | > 200 | 0.944 | > 50
34 | SLVL (B-cell lymphoma, suspension) | 0.966 | > 10000 | 0.593 | 1140 | 0.981 | > 2000 | 0.781 | 87.8 | 0.581 | 5.28
35 | EM-2 (chronic myeloid leukaemia, suspension) | 0.757 | 3860 | 0.545 | 843 | 0.483 | 111 | 0.59 | 22.9 | 0.498 | 3.09
36 | GI-ME-N (neuroblastoma, adherent) | 0.664 | 2120 | 0.734 | 3780 | 0.871 | > 2000 | 0.838 | > 200 | 0.497 | 3.06
37 | IMR-5 (neuroblastoma, adherent) | 0.973 | > 10000 | 0.726 | 2420 | 0.932 | > 2000 | 0.856 | 122 | 0.415 | 
38 | BE2-M17 (neuroblastoma, adherent) | 0.983 | > 10000 | 0.697 | 2270 | 0.918 | > 2000 | 0.987 | > 200 | 0.726 | 14
